# From the supplement of paper PMC9446081
# Among all 39,000 compounds or so, about 220 (0.56%) showed activity. The list shows a part of the results.
# Tested on: Escherichia coli K-12 BW25113
# Experiment: relative growth (OD600 normalised to plate interquartile mean) (fraction); higher = less growth inhibition, active = 0.2 or less
# Conditions: 50 µM; LB; incubation time: overnight (16-24 h)
# 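Further: static incubation at 37 °C against the wild-type strain, values averaged over two biological replicates.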
row,Compound,relative growth
1,COc1ccc(S(=O)(=O)Nc2ccc3c(c2)C(=O)N([C@@H](C)CO)C[C@H](C)[C@H](CN(C)C(=O)c2ccccc2)OCCCC[C@@H](C)O3)cc1,inactive: 1.03
2,C[C@@H]1CN([C@@H](C)CO)C(=O)c2cc(NC(=O)CCC(F)(F)F)ccc2O[C@@H](C)CCCCO[C@H]1CN(C)S(=O)(=O)c1ccccc1,inactive: 1.02
3,C[C@@H]1CN([C@H](C)CO)S(=O)(=O)c2ccc(Br)cc2O[C@@H]1CN(C)C(=O)c1cnccn1,inactive: 1
4,Cc1noc(C)c1NC(=O)Nc1cccc2c1O[C@@H](CN(C)S(=O)(=O)c1cn(C)cn1)[C@@H](C)CN([C@@H](C)CO)C2=O,inactive: 1
5,C[C@@H]1CN([C@H](C)CO)C(=O)Cc2cc(NC(=O)Cc3ccccc3)ccc2O[C@H]1CN(C)S(C)(=O)=O,inactive: 1.01
6,C[C@@H]1CN([C@@H](C)CO)C(=O)c2cccc(NC(=O)c3nc4ccccc4s3)c2O[C@H]1CN(C)C(=O)Nc1ccc(C(F)(F)F)cc1,inactive: 0.948
7,COc1ccc(S(=O)(=O)Nc2ccc3c(c2)C(=O)N([C@@H](C)CO)C[C@@H](C)[C@@H](CN(C)C(=O)Nc2cccc4ccccc24)OCCCC[C@@H](C)O3)cc1,inactive: 1.05
8,C[C@@H]1CN([C@@H](C)CO)C(=O)c2cc(NC(=O)Cn3cnnn3)ccc2O[C@@H]1CN(C)C(=O)Nc1ccccc1,inactive: 0.99
9,C[C@@H]1CN([C@H](C)CO)C(=O)c2cc(C#CC3CC3)cnc2O[C@@H]1CN(C)S(=O)(=O)c1cccc(F)c1,inactive: 1.02
10,Cc1ccc(S(=O)(=O)N(C)C[C@H]2Oc3ccc(NS(=O)(=O)c4cn(C)cn4)cc3CC(=O)N([C@@H](C)CO)C[C@H]2C)cc1,inactive: 1.03
11,CC(C)C(=O)Oc1ccc(CO)cc1C(CCN(C(C)C)C(C)C)c1ccccc1.O=C(O)C=CC(=O)O (stereo not given),inactive: 0.804
12,Cc1ccc(S(=O)(=O)Nc2ccc3c(c2)C(=O)N([C@H](C)CO)C[C@H](C)[C@@H](CN(C)C(=O)Nc2cccc4ccccc24)O3)cc1,inactive: 1.02
13,C[C@H]1CN([C@@H](C)CO)C(=O)Cc2cc(NC(=O)Cc3ccccc3)ccc2O[C@@H]1CN(C)S(=O)(=O)c1cn(C)cn1,inactive: 0.936
14,COc1ccc(S(=O)(=O)N2C[C@@H](O)COC[C@@H]3O[C@H](CC(=O)N[C@H]4CCN(Cc5ccccc5)C4)CC[C@H]32)cc1,inactive: 0.956
15,C[C@H]1CCCCO[C@@H](CN(C)C(=O)Nc2ccc(F)cc2)[C@@H](C)CN([C@@H](C)CO)C(=O)c2cc(NC(=O)Nc3ccccc3)ccc2O1,inactive: 1.01
16,C[C@@H]1CN([C@@H](C)CO)C(=O)Cc2cc(NC(=O)C3CCCCC3)ccc2O[C@H]1CN(C)Cc1ccc(C(=O)Nc2ccccc2N)cc1,inactive: 1.01
17,COc1ccc(S(=O)(=O)N2CC(NC(=O)Cn3ccc(=O)n(C)c3=O)C2)cc1,inactive: 0.997
18,O=C1OCCN(c2ccccc2)C1=O,inactive: 1
19,COc1ccc([Si](C)(C)[C@H]2[C@H](CC(=O)N3Cc4ccccc4C[C@H]3CO)O[C@@]3(C(=O)N(Cc4cccc(N5CCC5=O)c4)c4ccccc43)[C@@H]2C)cc1,inactive: 1.03
20,O=C(C[C@@H]1CC[C@@H](NC(=O)CN2CCOCC2)[C@H](CO)O1)NC1CCC1,inactive: 0.996

row,Compound,relative growth
1,C[C@H](O)C#Cc1ccc2c(c1)O[C@@H](CN(C)C(=O)c1ccncc1)[C@H](C)CN([C@H](C)CO)S2(=O)=O,inactive: 0.982
2,CNC(=O)CN1CCN2CCN(CC(=O)NC)CC(=O)[O][Gd]([O]C(=O)C2)[O]C(=O)C1,inactive: 0.956
3,C[C@H](CO)N1C[C@H](C)[C@H](CN(C)C(=O)Nc2ccccc2)Oc2c(NC(=O)CCCCCC(=O)Nc3ccccc3N)cccc2C1=O,inactive: 0.992
4,COc1ccc2c(c1)c(CC(=O)OCC(=O)O)c(C)n2C(=O)c1ccc(Cl)cc1,inactive: 0.954
5,COC(=O)c1c2oc(c1C(=O)OC)C(=O)N(C)Cc1cn(nn1)C[C@@H](Cc1ccccc1)NC(=O)N[C@H](COC(=O)NCCCCCC(=O)NO)CC2,inactive: 1.01
6,O=C(C[C@H]1C[C@@H]2c3cc(NS(=O)(=O)c4ccc(F)cc4)ccc3O[C@@H]2[C@@H](CO)O1)NCc1ccccc1F,inactive: 0.99
7,CN(C)c1cncc(C(=O)O)c1,inactive: 0.97
8,C[C@H]1CN([C@@H](C)CO)C(=O)c2cccc(NC(=O)c3nc4ccccc4s3)c2O[C@H]1CN(C)Cc1ccc(-c2ccccc2)cc1,inactive: 0.996
9,Cl.NC(COP(=O)(O)O)C(=O)O (stereo not given),inactive: 1.08
10,CC1C(=O)OC2CC34C5CC(C(C)(C)C)C36C(OC(=O)C6O)OC4(C(=O)O5)C21O (stereo not given),inactive: 1.09
11,C[C@@H]1CN([C@H](C)CO)C(=O)c2cccc(NS(C)(=O)=O)c2O[C@H]1CN(C)C(=O)Nc1ccc(F)cc1,inactive: 1.01
12,C[C@H]1CN([C@@H](C)CO)C(=O)c2cccc(NC(=O)Nc3ccccc3)c2O[C@H]1CN(C)Cc1ccc(Cl)c(Cl)c1,inactive: 0.994
13,Cc1nc2[nH]c(C)c(CCC(=O)O)c(=O)n2n1,inactive: 0.998
14,C[C@H]1CN([C@@H](C)CO)C(=O)c2cc(NC(=O)Cc3cn(C)c4ccccc34)ccc2O[C@H]1CN(C)Cc1ccc(-c2ccccc2)cc1,inactive: 1.02
15,COc1ccc(-n2c(C)cc(CN)c2C)cc1,inactive: 0.995
16,O=C(C[C@H]1C=C[C@@H](NC(=O)Nc2cc(F)ccc2F)[C@H](CO)O1)NCCCN1CCOCC1,inactive: 0.931
17,CO[C@@H](CN(C)C(=O)C1CCOCC1)[C@@H](C)CN(C(=O)Nc1ccc(C(F)(F)F)cc1)[C@@H](C)CO,inactive: 0.889
18,CN(C)CCCNC(=O)C[C@@H]1CC[C@H]2[C@@H](COc3ccc(NS(C)(=O)=O)cc3C(=O)N2C)O1,inactive: 0.977
19,COc1cccc(S(=O)(=O)Nc2ccc3c(c2)[C@H]2C[C@H](CC(=O)NCCc4ccccc4)O[C@@H](CO)[C@H]2O3)c1,inactive: 1.02
20,C[C@H](CO)N1C[C@H](C)[C@H](CN(C)C(=O)Cc2ccccn2)Oc2cc(C#C[C@@H](C)O)ccc2S1(=O)=O,inactive: 1
